This is one part of the list. Repeats are few or missing, and single values can be far off.
Columns and labels:
Assay in all cases: proliferation Z-score within cell line (SRB, relative to all inhibitors screened on that line); triple-negative breast cancer lines and a kinase inhibitor library; SRB is the sulforhodamine B protein stain; higher = less growth inhibition (more resistant)
Conditions in all cases: concentration: 1 µM; 4 days
Bt20 = test system: Bt20
Bt549 = test system: Bt549
HCC1143 = test system: HCC1143
HCC1806 = test system: HCC1806
HCC1937 = test system: HCC1937
HCC38 = test system: HCC38
HCC70 = test system: HCC70
Hs578T = test system: Hs578T
MDA-MB-231 = test system: MDA-MB-231
MDA-MB-435s = test system: MDA-MB-435s
MDA-MB-436 = test system: MDA-MB-436
MDA-MB-453 = test system: MDA-MB-453
MDA-MB-468 = test system: MDA-MB-468
SKBR7 = test system: SKBR7
SUM1315MO2 = test system: SUM1315MO2
SUM149PT = test system: SUM149PT
SUM159PT = test system: SUM159PT
SUM185PE = test system: SUM185PE
SUM229PE = test system: SUM229PE
SUM52PE = test system: SUM52PE
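Also: Single-dose primary screen of a 378-member kinase inhibitor library in 96-well plates, with growth read as absorbance of protein-bound SRB dye after TCA fixation.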

SMILES | proliferation Z-score within cell line (Bt20) | proliferation Z-score within cell line (Bt549) | proliferation Z-score within cell line (HCC1143) | proliferation Z-score within cell line (HCC1806) | proliferation Z-score within cell line (HCC1937) | proliferation Z-score within cell line (HCC38) | proliferation Z-score within cell line (HCC70) | proliferation Z-score within cell line (Hs578T) | proliferation Z-score within cell line (MDA-MB-231) | proliferation Z-score within cell line (MDA-MB-435s) | proliferation Z-score within cell line (MDA-MB-436) | proliferation Z-score within cell line (MDA-MB-453) | proliferation Z-score within cell line (MDA-MB-468) | proliferation Z-score within cell line (SKBR7) | proliferation Z-score within cell line (SUM1315MO2) | proliferation Z-score within cell line (SUM149PT) | proliferation Z-score within cell line (SUM159PT) | proliferation Z-score within cell line (SUM185PE) | proliferation Z-score within cell line (SUM229PE) | proliferation Z-score within cell line (SUM52PE)
Cc1cc([C@@H](C)Nc2ccccc2C(=O)O)c2nc(N3CCOCC3)cc(=O)n2c1 | -1.29 | -0.775 | -0.317 | -0.774 | -1.03 | 0.021 | -0.35 | -0.658 | 0.32 | 0.0946 | 0.501 | -1.53 | -0.58 | 0.167 | -0.223 | 0.218 | 0.395 | -1.52 | -0.185 | -0.815
C=CC(=O)Nc1cccc(Oc2nc(Nc3ccc(N4CCN(C)CC4)cc3OC)ncc2Cl)c1 | -0.841 | 0.531 | 0.842 | 0.617 | 0.711 | 0.626 | 0.823 | 0.746 | 0.27 | 0.305 | 0.865 | 0.716 | -0.914 | 0.742 | -0.562 | -0.182 | 0.528 | -0.318 | -0.69 | -0.586
Cc1[nH]nc2ccc(-c3cncc(OC[C@@H](N)Cc4ccccc4)c3)cc12 | -1.23 | -1.4 | -0.827 | -0.718 | -1.42 | -0.517 | -1.39 | -0.331 | -1.19 | -0.82 | -1.58 | -0.898 | -1.48 | -1.31 | -0.121 | -0.747 | -0.593 | -0.435 | -0.434 | -0.382
Cc1ccc([N+](=O)[O-])cc1S(=O)(=O)N(C)/N=C/c1cnc2ccc(Br)cn12 | -3.14 | -3.43 | -3.72 | -1.62 | -3.27 | -2.81 | -3.3 | -3.11 | -2.64 | -2.72 | -3.24 | -2.1 | -2.49 | -2.9 | -2.85 | -3.17 | -4.08 | -2.11 | -3.02 | -2.12
CC(C)(C#N)c1ccc(N2C(=O)OCc3cnc4ccc(-c5cnc6ccccc6c5)cc4c32)cc1 | -0.731 | -1.62 | 0.119 | 0.367 | -0.356 | -0.128 | -0.585 | -1.88 | -0.181 | 0.0801 | -0.906 | -1.13 | 0.152 | -1.69 | -0.887 | -0.316 | 0.128 | -1.22 | -0.215 | -0.577
COc1ccc(-c2ccc3c(N4CCOCC4)nc(N4C[C@@H](C)O[C@@H](C)C4)nc3n2)cc1CO | -1.33 | -1.55 | -0.00892 | 0.167 | -0.839 | 0.0938 | -1.01 | -1.75 | -1.15 | -1.13 | -1.31 | -1.24 | -1.21 | -1.5 | -1.77 | -0.851 | -0.119 | -2.06 | -1.06 | -1.69
CC[C@H](Nc1ncnc2[nH]cnc12)c1nc2cccc(F)c2c(=O)n1-c1ccccc1 [CAL-101 (Idelalisib, GS-1101)] | 0.653 | 0.366 | 0.787 | 0.0855 | 0.763 | 0.465 | 0.623 | 0.518 | 0.961 | 0.725 | 0.698 | 0.78 | 0.372 | 1.03 | 0.376 | 0.732 | 0.542 | 0.676 | 0.453 | 0.724
CN1CCN(c2nc(C3=C(c4c[nH]c5ccccc45)C(=O)NC3=O)c3ccccc3n2)CC1 [Sotrastaurin] | 0.562 | 0.856 | 1.02 | 0.676 | 0.674 | 0.263 | 0.65 | 0.757 | 0.938 | 0.879 | 0.854 | 0.988 | 1.06 | 0.864 | 0.957 | 0.743 | 0.566 | 0.766 | 0.517 | 0.677
COc1cc2ncnc(Nc3ccc(Cl)cc3F)c2cc1OC | -0.323 | 0.409 | -0.6 | -1.74 | -0.291 | -0.0102 | 0.279 | 0.224 | 0.326 | 0.37 | -0.0234 | 0.495 | -0.751 | -0.18 | -0.24 | -0.843 | 0.192 | 0.0345 | -0.541 | -0.28
C[C@H](NC(=O)/C(C#N)=C/c1cccc(Br)n1)c1ccccc1 | 0.922 | 0.65 | 0.765 | 0.687 | 0.691 | 0.613 | 0.609 | 0.777 | 1 | 0.907 | 0.437 | 0.821 | 1.09 | 0.376 | 1.1 | 0.912 | 0.605 | 1.01 | 0.738 | 1.28
C=CC(=O)Nc1ccc2ncnc(Nc3cccc(Br)c3)c2c1 | -0.0339 | 0.294 | -0.388 | -1.37 | -1.24 | 0.358 | 0.194 | 0.322 | 0.543 | 0.229 | -0.0229 | -0.362 | -1.05 | -0.243 | 0.887 | -0.773 | 0.133 | 1.17 | -0.161 | 1.38
CCCCCCCCCCCCc1ccc(S(=O)(=O)Nc2nncs2)cc1 | 0.965 | 0.751 | 0.73 | 0.918 | 0.335 | 0.566 | 0.419 | 0.585 | 0.99 | 0.858 | 0.719 | 0.901 | 1.17 | 1.25 | 1.09 | 0.59 | 0.504 | 1.25 | 0.694 | 1.34
CNC(=O)CN1CCC(Oc2cc3c(Nc4cccc(Cl)c4F)ncnc3cc2OC)CC1 [AZD8931 (Sapitinib)] | -0.917 | 0.503 | -2.02 | -1.61 | -0.288 | 0.125 | -1.46 | 0.548 | 0.67 | 0.546 | -0.7 | -0.914 | -1.06 | -0.302 | 0.0649 | -0.699 | -1.27 | 0.232 | -0.727 | -0.182
CN1CCN(S(=O)(=O)c2ccc(-c3cnc(N)c(C(=O)Nc4cccnc4)n3)cc2)CC1 | 1.19 | 0.549 | 0.838 | 0.683 | 0.709 | 0.463 | 0.638 | 0.67 | 0.292 | 0.59 | 1.57 | 0.884 | 0.368 | 0.84 | 2.68 | 1.07 | 0.573 | 0.79 | 1.65 | 1.33
CNC(=O)c1cc(Oc2ccc(NC(=O)Nc3cc(C(C)(C)C)nn3-c3ccc4ncccc4c3)c(F)c2)ccn1 [DCC-2036 (Rebastinib)] | 1.11 | -0.0372 | 1.43 | 1.2 | 1.07 | 0.635 | 0.926 | 0.348 | -0.707 | -0.734 | 1.03 | -0.776 | 1.59 | 0.573 | -0.272 | 1.16 | 0.749 | -1.4 | 1.23 | -1.19
CC(C)CC(=O)Nc1n[nH]c2c1CN(C(=O)C1CCN(C)CC1)C2(C)C | -0.362 | -1.89 | -0.215 | -1.29 | -0.425 | -0.339 | 0.319 | -2.24 | -1.54 | -1.09 | 0.148 | -1.46 | -1.34 | -2.03 | -0.117 | -1.25 | 0.776 | -0.319 | -0.853 | -0.299
Cn1cnc(-c2cc3nccc(Oc4ccc(NC(=S)NC(=O)Cc5ccccc5)cc4F)c3s2)c1 | 0.774 | 0.575 | 1.02 | 1.12 | 1.23 | 0.517 | 0.71 | 0.574 | 0.818 | 0.76 | 0.749 | 0.898 | 1.01 | 1.02 | 0.644 | 1.24 | 0.801 | 0.655 | 0.372 | 0.219
Nc1ncnc2c1c(-c1cccc(OCc3ccccc3)c1)cn2C1CC(CN2CCCC2)C1 (stereo not given) | 1.05 | 0.524 | -2.15 | 0.329 | -2.74 | 0.487 | -1.99 | 0.78 | 0.191 | 0.163 | -2.5 | 0.986 | 1.08 | -0.0353 | 1.23 | -0.0125 | -2.82 | 1.34 | -0.52 | 1.36
COc1ccc(CNC(=O)Nc2ncc([N+](=O)[O-])s2)cc1 | -0.419 | -1.4 | -0.443 | -1.3 | -1.15 | -2.04 | -1.16 | -1.45 | 0.556 | 0.0803 | 0.00877 | -1.67 | -0.263 | -1.34 | 0.32 | 0.528 | 0.443 | 0.501 | 0.506 | 0.554
Cn1c(=O)c(F)c(Nc2ccc(I)cc2F)c2c(=O)n(C[C@@H](O)CO)cnc21 | 0.0153 | 0.0345 | -1.37 | -1.04 | 0.266 | 0.0381 | -0.0586 | -0.454 | -1.34 | -1.14 | -0.145 | -0.683 | -0.822 | 0.743 | -0.0186 | -1.67 | 0.444 | -0.316 | -1.75 | -1.06
N#Cc1c(NC(=O)c2cccc3ccccc23)sc2c1CCCC2 [JNK Inhibitor IX] | -0.697 | 0.171 | 0.376 | 0.0118 | 0.426 | 0.237 | 0.384 | 0.4 | -1.55 | -1.73 | 0.323 | 0.393 | 0.612 | -0.154 | -2.17 | -0.527 | 0.251 | 0.319 | -1.77 | -0.608
COc1ccc(S(=O)(=O)N(C(C)=O)c2ccccc2/C=C/c2cc[n+]([O-])cc2)cc1 | -1.56 | -1.35 | -0.42 | -1.54 | -0.586 | -2.48 | 0.511 | -1.75 | -0.855 | -1.68 | -0.25 | -1.89 | -1.76 | -2.2 | -1.94 | -1.5 | 0.428 | -0.904 | -1.66 | -1
COc1cc2c(N3CCN(C(=O)Nc4ccc(OC(C)C)cc4)CC3)ncnc2cc1OCCCN1CCCCC1 [Tandutinib (MLN518)] | 1.48 | 0.379 | 0.652 | 0.263 | 0.685 | 0.462 | 0.6 | 0.471 | 0.935 | 1.15 | 0.7 | 0.785 | 1.3 | 0.767 | 0.871 | 1.05 | 0.518 | 1.11 | 0.585 | 1.58
COc1cc2nccc(Oc3ccc(NC(=O)Nc4cc(C)on4)c(Cl)c3)c2cc1OC [Tivozanib (AV-951)] | 0.678 | 0.901 | 0.775 | 1.78 | 0.754 | 0.377 | 0.576 | 0.489 | 0.612 | 0.647 | 0.381 | 0.81 | 0.544 | 1.28 | -0.803 | 0.813 | 0.463 | -0.83 | 1.52 | -2.1
CN(C)CCCn1cc(C2=C(c3c[nH]c4ccccc34)C(=O)NC2=O)c2ccccc21 | 0.513 | 0.592 | 0.567 | 0.377 | 0.64 | 0.424 | 0.364 | 0.633 | 0.823 | 0.491 | 1.22 | 0.877 | 0.509 | 1.66 | 0.863 | 0.865 | 0.398 | 0.76 | -0.0743 | 0.682
